Reference: patent publication US20250289788A1, “HALOALKYL SULFONANILIDE COMPOUND AND HERBICIDE CONTAINING THE SAME” (SDS BIOTECH K.K., priority 2022, published 2025)
Some of these results come from one statement about several compounds together. For at least one compound, name, drawing or mass did not settle the structure.

Columns and labels:
Test in all cases: Test Example 1: herbicidal effect test using paddy field flooding treatment
Format in all cases: in vivo
Details in all cases: water surface application, 21 days after treatment
[1] = system: Schoenoplectiella juncoides (SJ)
Experimental: <Test Example 1> Herbicidal Effect Test Using Paddy Field Flooding Treatment
After each 40-cm^2 plastic cup was loaded with puddled paddy field soil, seeds of each of the following species were sown and grown in a greenhouse: Echinochloa crus-galli var. oryzicola (EC), Schoenoplectiella juncoides (SJ), Monochoria vaginalis (MV), or Ammannia multiflora (AM). After plants were grown for 14 days, water was flooded to a depth of 3 cm, and a 10% wettable powder, which had been adjusted according to Formulation Example 1, was diluted with distilled water and applied dropwise to the water surface. The amount applied was 1000, 500, 250, 125, 63, 31, or 16 g of active ingredient per hectare. The test was conducted in two series. Herbicidal efficacy (degree (%) of suppression of growth of terrestrial part: 100 (complete death) to 0 (no action)) was investigated at 21 days after the treatment.

[2] = system: Monochoria vaginalis (MV)
Ammannia multiflora (AM) = system: Ammannia multiflora (AM)

SMILES: O=C1c2cc(F)ccc2N1Cc1ccccc1NS(=O)(=O)C(F)(F)F [Compound 1-3]
- herbicidal efficacy (degree (%) of suppression of growth of terrestrial part) ([1]; dose 500 g a.i./ha): ≥ 80%
- herbicidal efficacy (degree (%) of suppression of growth of terrestrial part) ([2]; dose 250 g a.i./ha): ≥ 80%
- herbicidal efficacy (degree (%) of suppression of growth of terrestrial part) (Ammannia multiflora (AM); dose 125 g a.i./ha): ≥ 80%

SMILES: COc1cccc2c1C(=O)N(Cc1ccccc1NS(=O)(=O)C(F)(F)F)C2 [Compound 2-9]
- herbicidal efficacy (degree (%) of suppression of growth of terrestrial part) ([1]; dose 63 g a.i./ha): ≥ 80%
- herbicidal efficacy (degree (%) of suppression of growth of terrestrial part) ([2]; dose 500 g a.i./ha): ≥ 80%
- herbicidal efficacy (degree (%) of suppression of growth of terrestrial part) (Ammannia multiflora (AM); dose 31 g a.i./ha): ≥ 80%

SMILES: O=C1c2c(F)ccc(F)c2CCN1Cc1ccccc1N(C(=O)OC1CCS(=O)(=O)CC1)S(=O)(=O)C(F)(F)F [Compound 3-210]
- herbicidal efficacy (degree (%) of suppression of growth of terrestrial part) ([1]; dose 125 g a.i./ha): ≥ 80%
- herbicidal efficacy (degree (%) of suppression of growth of terrestrial part) ([2]; dose 250 g a.i./ha): ≥ 80%
- herbicidal efficacy (degree (%) of suppression of growth of terrestrial part) (Ammannia multiflora (AM); dose 16 g a.i./ha): ≥ 80%

SMILES: O=C1c2c(cccc2OS(=O)(=O)C(F)(F)F)CN1Cc1ccccc1NS(=O)(=O)C(F)(F)F [Compound 2-18]
- herbicidal efficacy (degree (%) of suppression of growth of terrestrial part) ([1]; dose 500 g a.i./ha): ≥ 80%
- herbicidal efficacy (degree (%) of suppression of growth of terrestrial part) ([2]; dose 125 g a.i./ha): ≥ 80%
- herbicidal efficacy (degree (%) of suppression of growth of terrestrial part) (Ammannia multiflora (AM); dose 16 g a.i./ha): ≥ 80%

SMILES: O=C1c2c(F)ccc(F)c2CCN1Cc1ccc(F)cc1NS(=O)(=O)C(F)(F)F [Compound 4-15]
- herbicidal efficacy (degree (%) of suppression of growth of terrestrial part) ([1]; dose 250 g a.i./ha): ≥ 80%
- herbicidal efficacy (degree (%) of suppression of growth of terrestrial part) ([2]; dose 63 g a.i./ha): ≥ 80%
- herbicidal efficacy (degree (%) of suppression of growth of terrestrial part) (Ammannia multiflora (AM); dose 16 g a.i./ha): ≥ 80%

SMILES: O=C1c2c(F)cccc2CCN1Cc1ccccc1N(C(=O)OC1COC1)S(=O)(=O)C(F)(F)F [Compound 3-197]
- herbicidal efficacy (degree (%) of suppression of growth of terrestrial part) ([1]; dose 500 g a.i./ha): ≥ 80%
- herbicidal efficacy (degree (%) of suppression of growth of terrestrial part) ([2]; dose 63 g a.i./ha): ≥ 80%
- herbicidal efficacy (degree (%) of suppression of growth of terrestrial part) (Ammannia multiflora (AM); dose 16 g a.i./ha): ≥ 80%

SMILES: CCOC(=O)N(c1ccccc1CN1CCc2cccc(C3CC3)c2C1=O)S(=O)(=O)C(F)(F)F [Compound 3-141]
- herbicidal efficacy (degree (%) of suppression of growth of terrestrial part) ([1]; dose 63 g a.i./ha): ≥ 80%
- herbicidal efficacy (degree (%) of suppression of growth of terrestrial part) (Ammannia multiflora (AM); dose 125 g a.i./ha): ≥ 80%

SMILES: CC(C)(C)OC(=O)N(c1ccccc1CN1CCc2c(F)ccc(F)c2C1=O)S(=O)(=O)C(F)(F)F [Compound 3-166]
- herbicidal efficacy (degree (%) of suppression of growth of terrestrial part) ([1]; dose 125 g a.i./ha): ≥ 80%
- herbicidal efficacy (degree (%) of suppression of growth of terrestrial part) ([2]; dose 31 g a.i./ha): ≥ 80%
- herbicidal efficacy (degree (%) of suppression of growth of terrestrial part) (Ammannia multiflora (AM); dose 16 g a.i./ha): ≥ 80%

SMILES: CSc1ccc(F)c2c1C(=O)N(Cc1ccccc1NS(=O)(=O)C(F)(F)F)CC2 [Compound 3-76]
- herbicidal efficacy (degree (%) of suppression of growth of terrestrial part) ([1]; dose 500 g a.i./ha): ≥ 80%
- herbicidal efficacy (degree (%) of suppression of growth of terrestrial part) ([2]; dose 63 g a.i./ha): ≥ 80%
- herbicidal efficacy (degree (%) of suppression of growth of terrestrial part) (Ammannia multiflora (AM); dose 31 g a.i./ha): ≥ 80%

SMILES: O=C1c2ccc(Br)cc2CCN1Cc1ccccc1NS(=O)(=O)C(F)(F)F [Compound 3-37]
- herbicidal efficacy (degree (%) of suppression of growth of terrestrial part) ([1]; dose 125 g a.i./ha): ≥ 80%
- herbicidal efficacy (degree (%) of suppression of growth of terrestrial part) ([2]; dose 125 g a.i./ha): ≥ 80%
- herbicidal efficacy (degree (%) of suppression of growth of terrestrial part) (Ammannia multiflora (AM); dose 125 g a.i./ha): ≥ 80%

SMILES: O=C1c2ccccc2SCN1Cc1ccccc1NS(=O)(=O)C(F)(F)F [Compound 7-7]
- herbicidal efficacy (degree (%) of suppression of growth of terrestrial part) ([1]; dose 63 g a.i./ha): ≥ 80%
- herbicidal efficacy (degree (%) of suppression of growth of terrestrial part) ([2]; dose 63 g a.i./ha): ≥ 80%
- herbicidal efficacy (degree (%) of suppression of growth of terrestrial part) (Ammannia multiflora (AM); dose 63 g a.i./ha): ≥ 80%

SMILES: O=C1c2cc(O)ccc2CN1Cc1ccccc1NS(=O)(=O)C(F)(F)F [Compound 2-33]
- herbicidal efficacy (degree (%) of suppression of growth of terrestrial part) ([1]; dose 500 g a.i./ha): ≥ 80%
- herbicidal efficacy (degree (%) of suppression of growth of terrestrial part) ([2]; dose 500 g a.i./ha): ≥ 80%
- herbicidal efficacy (degree (%) of suppression of growth of terrestrial part) (Ammannia multiflora (AM); dose 500 g a.i./ha): ≥ 80%

SMILES: O=C1c2cc(I)ccc2CCN1Cc1ccccc1NS(=O)(=O)C(F)(F)F [Compound 3-22]
- herbicidal efficacy (degree (%) of suppression of growth of terrestrial part) ([1]; dose 125 g a.i./ha): ≥ 80%
- herbicidal efficacy (degree (%) of suppression of growth of terrestrial part) ([2]; dose 250 g a.i./ha): ≥ 80%
- herbicidal efficacy (degree (%) of suppression of growth of terrestrial part) (Ammannia multiflora (AM); dose 125 g a.i./ha): ≥ 80%

SMILES: O=C1c2cccc(C(F)(F)F)c2N1Cc1ccccc1NS(=O)(=O)C(F)(F)F [Compound 1-6]
- herbicidal efficacy (degree (%) of suppression of growth of terrestrial part) ([1]; dose 63 g a.i./ha): ≥ 80%
- herbicidal efficacy (degree (%) of suppression of growth of terrestrial part) ([2]; dose 125 g a.i./ha): ≥ 80%
- herbicidal efficacy (degree (%) of suppression of growth of terrestrial part) (Ammannia multiflora (AM); dose 16 g a.i./ha): ≥ 80%

SMILES: O=C1c2sc(Br)cc2CN1Cc1ccccc1NS(=O)(=O)C(F)(F)F [Compound 6-2]
- herbicidal efficacy (degree (%) of suppression of growth of terrestrial part) ([1]; dose 250 g a.i./ha): ≥ 80%
- herbicidal efficacy (degree (%) of suppression of growth of terrestrial part) (Ammannia multiflora (AM); dose 125 g a.i./ha): ≥ 80%

SMILES: CCOC(=O)N(c1ccccc1CN1CCc2c(C(F)(F)F)ccc(F)c2C1=O)S(=O)(=O)C(F)(F)F [Compound 3-152, N-[2-(N-ethoxycarbonyl-N-trifluoromethanesulfonyl)aminobenzyl]-8-fluoro-5-trifluoromethyl-3,4-dihydroisoquinolin-1(2H)-one]
- herbicidal efficacy (degree (%) of suppression of growth of terrestrial part) ([1]; dose 500 g a.i./ha): ≥ 80%
- herbicidal efficacy (degree (%) of suppression of growth of terrestrial part) (Ammannia multiflora (AM); dose 63 g a.i./ha): ≥ 80%

SMILES: C#CCOc1ccc2c(c1)C(=O)N(Cc1ccccc1NS(=O)(=O)C(F)(F)F)C2 [Compound 2-37]
- herbicidal efficacy (degree (%) of suppression of growth of terrestrial part) ([1]; dose 500 g a.i./ha): ≥ 80%
- herbicidal efficacy (degree (%) of suppression of growth of terrestrial part) ([2]; dose 250 g a.i./ha): ≥ 80%

SMILES: O=C1CCc2ccccc2N1Cc1ccccc1NS(=O)(=O)C(F)(F)F [Compound 9-2]
- herbicidal efficacy (degree (%) of suppression of growth of terrestrial part) ([1]; dose 500 g a.i./ha): ≥ 80%
